B1: AB200-R1a-Fab_VH31 (antibody)
heavy: QVQLVQSGAEVKKPGSSVKVSCKASGGTFSNYWMHWVRQAPGQGLEWMGGTYRGHSDTYFNQKFKGRVTITADKSTSTAYMELSSLRSEDTAVYYCARGAIYHGFDVLDNWGQGTLVTVSSASTKGPSVFPLAPSSKSTSGGTAALGCLVKDYFPEPVTVSWNSGALTSGVHTFPAVLQSSGLYSLSSVVTVPSSSLGTQTYICNVNHKPSNTKVDKKVEPKSC
light: DIQMTQSPSSLSASVGDRVTITCSATQDISNYLNWYQQKPGKAPKLLIYFTSNLQSGVPSRFSGSGSGTDFTLTISSLQPEDFATYYCQQYRKLPWTFGQGTKLEIKRTVAAPSVFIFPPSDEQLKSGTASVVCLLNNFYPREAKVQWKVDNALQSGNSQESVTEQDSKDSTYSLSSTLTLSKADYEKHKVYACEVTHQGLSSPVTKSFNRGEC
B2: AB200-R1a-Fab_VH38 (antibody)
heavy: QVQLVQSGAEVKKPGSSVKVSCKASGGTFSNYWMHWVRQAPGQGLEWMGATYRGHSDTYFNQKFKGRVTITADKSTSTAYMELSSLRSEDTAVYYCARGAIFNGYDVLDNWGQGTLVTVSSASTKGPSVFPLAPSSKSTSGGTAALGCLVKDYFPEPVTVSWNSGALTSGVHTFPAVLQSSGLYSLSSVVTVPSSSLGTQTYICNVNHKPSNTKVDKKVEPKSC
light: DIQMTQSPSSLSASVGDRVTITCSATQDISNYLNWYQQKPGKAPKLLIYFTSNLQSGVPSRFSGSGSGTDFTLTISSLQPEDFATYYCQQYRKLPWTFGQGTKLEIKRTVAAPSVFIFPPSDEQLKSGTASVVCLLNNFYPREAKVQWKVDNALQSGNSQESVTEQDSKDSTYSLSSTLTLSKADYEKHKVYACEVTHQGLSSPVTKSFNRGEC
B3: AB200-R1a-Fab_VH40 (antibody)
heavy: QVQLVQSGAEVKKPGSSVKVSCKASGGTFSNFWMHWVRQAPGQGLEWMGATYRGHSDTYYNHKFKGRVTITADKSTSTAYMELSSLRSEDTAVYYCARGAIYHGYDVLENWGQGTLVTVSSASTKGPSVFPLAPSSKSTSGGTAALGCLVKDYFPEPVTVSWNSGALTSGVHTFPAVLQSSGLYSLSSVVTVPSSSLGTQTYICNVNHKPSNTKVDKKVEPKSC
light: DIQMTQSPSSLSASVGDRVTITCSATQDISNYLNWYQQKPGKAPKLLIYFTSNLQSGVPSRFSGSGSGTDFTLTISSLQPEDFATYYCQQYRKLPWTFGQGTKLEIKRTVAAPSVFIFPPSDEQLKSGTASVVCLLNNFYPREAKVQWKVDNALQSGNSQESVTEQDSKDSTYSLSSTLTLSKADYEKHKVYACEVTHQGLSSPVTKSFNRGEC
B4: AB200-R1a-Fab_VH42 (antibody)
heavy: QVQLVQSGAEVKKPGSSVKVSCKASGGTFSNYWMHWVRQAPGQGLEWMGATYRGHSTTYYNQKFKGRVTITADKSTSTAYMELSSLRSEDTAVYYCARGSIYHGYDVMDNWGQGTLVTVSSASTKGPSVFPLAPSSKSTSGGTAALGCLVKDYFPEPVTVSWNSGALTSGVHTFPAVLQSSGLYSLSSVVTVPSSSLGTQTYICNVNHKPSNTKVDKKVEPKSC
light: DIQMTQSPSSLSASVGDRVTITCSATQDISNYLNWYQQKPGKAPKLLIYFTSNLQSGVPSRFSGSGSGTDFTLTISSLQPEDFATYYCQQYRKLPWTFGQGTKLEIKRTVAAPSVFIFPPSDEQLKSGTASVVCLLNNFYPREAKVQWKVDNALQSGNSQESVTEQDSKDSTYSLSSTLTLSKADYEKHKVYACEVTHQGLSSPVTKSFNRGEC
B5: AB200-R1a-Fab_VH32: round 1 heavy chain variant of AB200_D99H_Fab paired with the AB200_Vk6_Fab (antibody)
heavy: QVQLVQSGAEVKKPGSSVKVSCKASGGTFSNYWMHWVRQAPGQGLEWMGATYRSHSDTYYNQKFKSRVTITADKSTSTAYMELSSLRSEDTAVYYCARGAIYHGYDVIDNWGQGTLVTVSSASTKGPSVFPLAPSSKSTSGGTAALGCLVKDYFPEPVTVSWNSGALTSGVHTFPAVLQSSGLYSLSSVVTVPSSSLGTQTYICNVNHKPSNTKVDKKVEPKSC
light: DIQMTQSPSSLSASVGDRVTITCSATQDISNYLNWYQQKPGKAPKLLIYFTSNLQSGVPSRFSGSGSGTDFTLTISSLQPEDFATYYCQQYRKLPWTFGQGTKLEIKRTVAAPSVFIFPPSDEQLKSGTASVVCLLNNFYPREAKVQWKVDNALQSGNSQESVTEQDSKDSTYSLSSTLTLSKADYEKHKVYACEVTHQGLSSPVTKSFNRGEC
B6: AB200-R1a-Fab_VH37 (antibody)
heavy: QVQLVQSGAEVKKPGSSVKVSCKASGGTFTNYWMHWVRQAPGQGLEWMGATYKGHSDTYYNQKFRGRVTITADKSTSTAYMELSSLRSEDTAVYYCARGAIYHGYDVLDNWGQGTLVTVSSASTKGPSVFPLAPSSKSTSGGTAALGCLVKDYFPEPVTVSWNSGALTSGVHTFPAVLQSSGLYSLSSVVTVPSSSLGTQTYICNVNHKPSNTKVDKKVEPKSC
light: DIQMTQSPSSLSASVGDRVTITCSATQDISNYLNWYQQKPGKAPKLLIYFTSNLQSGVPSRFSGSGSGTDFTLTISSLQPEDFATYYCQQYRKLPWTFGQGTKLEIKRTVAAPSVFIFPPSDEQLKSGTASVVCLLNNFYPREAKVQWKVDNALQSGNSQESVTEQDSKDSTYSLSSTLTLSKADYEKHKVYACEVTHQGLSSPVTKSFNRGEC
B7: AB200-R1a-Fab_VH41 (antibody)
heavy: QVQLVQSGAEVKKPGSSVKVSCKASGGTFSNYWMHWVRQAPGQGLEWMGATYRGHSDTYYNEKFKGRVTITADKSTSTAYMELSSLRSEDTAVYYCARGAIYHGYDILNNWGQGTLVTVSSASTKGPSVFPLAPSSKSTSGGTAALGCLVKDYFPEPVTVSWNSGALTSGVHTFPAVLQSSGLYSLSSVVTVPSSSLGTQTYICNVNHKPSNTKVDKKVEPKSC
light: DIQMTQSPSSLSASVGDRVTITCSATQDISNYLNWYQQKPGKAPKLLIYFTSNLQSGVPSRFSGSGSGTDFTLTISSLQPEDFATYYCQQYRKLPWTFGQGTKLEIKRTVAAPSVFIFPPSDEQLKSGTASVVCLLNNFYPREAKVQWKVDNALQSGNSQESVTEQDSKDSTYSLSSTLTLSKADYEKHKVYACEVTHQGLSSPVTKSFNRGEC
B8: AB200-R1a-Fab_VH1 (antibody)
heavy: QVQLVQSGAEVKKPGSSVKVSCKASGGTFSNYWMHWVRQAPGQGLEWMGATYRGHSETYYNEKFKGRVTITADKSTSTAYMELSSLRSEDTAVYYCARGAIYHGYDVLDDWGQGTLVTVSSASTKGPSVFPLAPSSKSTSGGTAALGCLVKDYFPEPVTVSWNSGALTSGVHTFPAVLQSSGLYSLSSVVTVPSSSLGTQTYICNVNHKPSNTKVDKKVEPKSC
light: DIQMTQSPSSLSASVGDRVTITCSATQDISNYLNWYQQKPGKAPKLLIYFTSNLQSGVPSRFSGSGSGTDFTLTISSLQPEDFATYYCQQYRKLPWTFGQGTKLEIKRTVAAPSVFIFPPSDEQLKSGTASVVCLLNNFYPREAKVQWKVDNALQSGNSQESVTEQDSKDSTYSLSSTLTLSKADYEKHKVYACEVTHQGLSSPVTKSFNRGEC
B9: AB200-R1a-Fab_VH36 (antibody)
heavy: QVQLVQSGAEVKKPGSSVKVSCKASGGTFSNYWMHWVRQAPGQGLEWMGATFRGHSDTYYNHKFKGRVTITADKSTSTAYMELSSLRSEDTAVYYCARGAIYHGFDVLDNWGQGTLVTVSSASTKGPSVFPLAPSSKSTSGGTAALGCLVKDYFPEPVTVSWNSGALTSGVHTFPAVLQSSGLYSLSSVVTVPSSSLGTQTYICNVNHKPSNTKVDKKVEPKSC
light: DIQMTQSPSSLSASVGDRVTITCSATQDISNYLNWYQQKPGKAPKLLIYFTSNLQSGVPSRFSGSGSGTDFTLTISSLQPEDFATYYCQQYRKLPWTFGQGTKLEIKRTVAAPSVFIFPPSDEQLKSGTASVVCLLNNFYPREAKVQWKVDNALQSGNSQESVTEQDSKDSTYSLSSTLTLSKADYEKHKVYACEVTHQGLSSPVTKSFNRGEC
B10: AB200-R1a-Fab_VH35 (antibody)
heavy: QVQLVQSGAEVKKPGSSVKVSCKASGGTFSNYWIHWVRQAPGQGLEWMGATFKGHSDTYYNQKFKGRVTITADKSTSTAYMELSSLRSEDTAVYYCARGAIYHGYDVLDNWGQGTLVTVSSASTKGPSVFPLAPSSKSTSGGTAALGCLVKDYFPEPVTVSWNSGALTSGVHTFPAVLQSSGLYSLSSVVTVPSSSLGTQTYICNVNHKPSNTKVDKKVEPKSC
light: DIQMTQSPSSLSASVGDRVTITCSATQDISNYLNWYQQKPGKAPKLLIYFTSNLQSGVPSRFSGSGSGTDFTLTISSLQPEDFATYYCQQYRKLPWTFGQGTKLEIKRTVAAPSVFIFPPSDEQLKSGTASVVCLLNNFYPREAKVQWKVDNALQSGNSQESVTEQDSKDSTYSLSSTLTLSKADYEKHKVYACEVTHQGLSSPVTKSFNRGEC
B11: AB200-R1a-Fab_VH34 (antibody)
heavy: QVQLVQSGAEVKKPGSSVKVSCKASGGTFSNYYLHWVRQAPGQGLEWMGATYRGHSDTYYNQKFKGRVTITADKSTSTAYMELSSLRSEDTAVYYCARGAIYNGYDVLDNWGQGTLVTVSSASTKGPSVFPLAPSSKSTSGGTAALGCLVKDYFPEPVTVSWNSGALTSGVHTFPAVLQSSGLYSLSSVVTVPSSSLGTQTYICNVNHKPSNTKVDKKVEPKSC
light: DIQMTQSPSSLSASVGDRVTITCSATQDISNYLNWYQQKPGKAPKLLIYFTSNLQSGVPSRFSGSGSGTDFTLTISSLQPEDFATYYCQQYRKLPWTFGQGTKLEIKRTVAAPSVFIFPPSDEQLKSGTASVVCLLNNFYPREAKVQWKVDNALQSGNSQESVTEQDSKDSTYSLSSTLTLSKADYEKHKVYACEVTHQGLSSPVTKSFNRGEC
B12: AB200-R1a-Fab_VH33 (antibody)
heavy: QVQLVQSGAEVKKPGSSVKVSCKASGGTFTNFWMHWVRQAPGQGLEWMGATYRGQSDTYYNQKFKGRVTITADKSTSTAYMELSSLRSEDTAVYYCARGAIYHGYDVLDNWGQGTLVTVSSASTKGPSVFPLAPSSKSTSGGTAALGCLVKDYFPEPVTVSWNSGALTSGVHTFPAVLQSSGLYSLSSVVTVPSSSLGTQTYICNVNHKPSNTKVDKKVEPKSC
light: DIQMTQSPSSLSASVGDRVTITCSATQDISNYLNWYQQKPGKAPKLLIYFTSNLQSGVPSRFSGSGSGTDFTLTISSLQPEDFATYYCQQYRKLPWTFGQGTKLEIKRTVAAPSVFIFPPSDEQLKSGTASVVCLLNNFYPREAKVQWKVDNALQSGNSQESVTEQDSKDSTYSLSSTLTLSKADYEKHKVYACEVTHQGLSSPVTKSFNRGEC

The data set in a line: ThermoFluor thermostability (Tm). It counts as physicochemical. Conditions: Heavy chain screening Round 1; Fab, paired with light chain AB200_VK6. A general note: In DSF a fluorescence change marks the thermal transition of the protein.
Consider B1, for which the Tm is 79.560 °C.
In the case of B2, the Tm came out at 80.903 °C.
With B3 the figure was 82.339 °C; with B4, 82.125 °C.
As to B5, the Tm worked out at 78.112 °C.
In the case of B6, the Tm is 81.688 °C.
For the molecule B7, the Tm came to 79.430 °C.
With B8, the Tm is 82.955 °C.
On to B9, for which the Tm worked out at 82.674 °C.
On to B10, for which the Tm is 84.851 °C.
In the case of B11, the Tm amounted to 82.908 °C.
As for B12, the Tm is 82.085 °C.

The values are drawn from US12043670B2, “Anti-BCMA antibody-drug conjugates and methods of use” (Eisai R&D Management Co., Ltd., priority 2020, dated 2024).
